# Experimental data taken from PubChem BioAssay AID1476 (National Center for Advancing Translational Sciences (NCATS), 2009).
# Values joined by “and” are separate entries in the source; they are usually repeats but may differ in a detail not shown here. Equal values may be shown once. Hit rate of the full screen: of about 200,000 compounds, about 4,500 (2.2%) were called active. This list was built around the results that the source calls inconclusive (neither active nor inactive); the mix of calls is not that of the screen. Calls follow the shape of the dose curve; as a rule, active = well fitted inhibition curve with a large enough effect; inconclusive = small, poorly fitted or top-dose-only effect, or effect the other way; inactive = flat fitted curve, though single readings scatter. A potency beside an inconclusive call is a rough fit, not a confirmed value.
# Target: Cruzipain (Trypanosoma cruzi) (UniProt P25779)
# Assay: qHTS Assay for Promiscuous and Specific Inhibitors of Cruzain (without detergent); also: nearly all actives have a fitted effect of over 40% in size;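 as to max response, negative = inhibition: plate controls were enzyme without inhibitor for no effect and buffer without enzyme for full effect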
# Settings: purified cruzain, Z-FR-AMC fluorescence, no detergent
# Summary of the method: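 Purified cruzain at 1.5 nM, pre-incubated 15 min with compound at room temperature in 100 mM sodium acetate pH 5.5, 5 mM DTT, 0.00005% Triton X-100. Reaction started with 2 uM Z-FR-AMC; AMC fluorescence increase over 60 s gives rate.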
# Potency is read from the fitted curve at half-maximal effect; tags tell the direction and shape of the fitted curve.
# Chain of UniProt P25779 (P25779 whole entry, looked up): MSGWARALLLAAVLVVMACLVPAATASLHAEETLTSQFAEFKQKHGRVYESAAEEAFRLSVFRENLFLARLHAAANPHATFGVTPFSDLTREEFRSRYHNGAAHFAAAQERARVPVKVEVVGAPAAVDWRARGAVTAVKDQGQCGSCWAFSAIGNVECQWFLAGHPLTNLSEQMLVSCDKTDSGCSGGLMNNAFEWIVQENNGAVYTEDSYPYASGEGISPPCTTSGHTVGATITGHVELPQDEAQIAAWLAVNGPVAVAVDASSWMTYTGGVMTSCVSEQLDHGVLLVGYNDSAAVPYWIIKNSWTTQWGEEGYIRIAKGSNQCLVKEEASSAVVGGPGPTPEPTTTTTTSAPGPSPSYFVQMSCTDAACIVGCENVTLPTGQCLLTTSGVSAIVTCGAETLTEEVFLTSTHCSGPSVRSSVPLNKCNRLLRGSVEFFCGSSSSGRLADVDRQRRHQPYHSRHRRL
SMILES,Potency,"max response, negative = inhibition"
CC(C)c1ccc(NC(=O)CN(C)S(=O)(=O)c2ccc3c(c2)c(=O)n(C)c(=O)n3C)cc1,"inconclusive: 39.8 µM [activator, single point]",–
Cc1[nH]n(-c2ccccc2)c(=O)c1C(c1ccc(C(=O)O)cc1)c1c(C)[nH]n(-c2ccccc2)c1=O,"inconclusive: 31.6 µM [activator, single point]",–
C=CCn1c(SCC(=O)Nc2nccs2)nnc1-c1cc2cccc(OC)c2o1,active: 25.1 µM,–
COc1cc2[nH]c(=O)n(CCCCCC(=O)N3CCN(c4cccc(C(F)(F)F)c4)CC3)c(=O)c2cc1OC,"inconclusive: 12.6 µM [activator, partial curve]",–
O=C(CCc1nc(-c2ccccc2F)no1)Nc1ccc(Oc2ccccc2)cc1,"inconclusive: 39.8 µM [activator, single point]",–
O=C(Nc1nnc(C2CC2)s1)c1cc([N+](=O)[O-])ccc1N1CCCCC1,"inconclusive: 31.6 µM [inhibitor, single point]",–
COC(=O)[C@@]1(Cc2ccc(OC)cc2)[C@H]2c3cc(C(=O)N(C)C)n(C[C@H](O)CO)c3C[C@H]2CN1C(=O)c1ccccc1,"inconclusive: 31.6 µM [activator, partial curve] and inconclusive: 20 µM [activator, partial curve, poor fit]",–
Cn1c(NCCO)nc2c1c(=O)n(Cc1ccccc1Cl)c(=O)n2C,–,inactive: -10%
COc1ccccc1NC(=O)Cn1nnc(C(=O)NCc2ccc3c(c2)OCO3)c1N,"inconclusive: 39.8 µM [inhibitor, single point]",–
CCCn1c(SCC(=O)c2cc(C)n(-c3ccc4c(c3)OCO4)c2C)n[nH]c1=O,"inconclusive: 31.6 µM [inhibitor, single point]",–
CCc1ccc(OCC(=O)N(Cc2ccc(Cl)cc2)C2CCS(=O)(=O)C2)cc1 (configuration not stated),"inconclusive: 20 µM [activator, partial curve]",–
CS(=O)(=O)N(CCc1ccccc1)CC(=O)N1CCN(c2ccccc2)CC1,"inconclusive: 31.6 µM [activator, single point]",–
Cc1cccc(NC(=O)c2c(NC(=O)C(F)(F)F)sc3c2CCCCC3)c1,–,inactive: -23.2%
COC(=O)c1ccccc1NC(=O)NCCc1c(C)nn(C)c1C,–,inactive: -2.74%
Cc1cc(C)nc(Nc2n[nH]c(COc3ccccc3)n2)n1,"inconclusive: 31.6 µM [inhibitor, single point]",–
O=C(Nc1ccc(Cl)c(Cl)c1)Nc1nc(-c2ccccc2)cs1,active: 10 µM,–
Cc1ccc(N2C(=O)C(Cl)=C(N3CCN(C)CC3)C2=O)c(C)c1,"inconclusive: 39.8 µM [inhibitor, single point]",–
Cc1noc(/C=C/c2ccco2)c1S(=O)(=O)N1CCC(C(=O)N2CCc3ccccc32)CC1,active: 15.8 µM,–
COc1ccc(-n2c(C)cc(C(=O)COc3ccc(C)nc3[N+](=O)[O-])c2C)cc1,"inconclusive: 39.8 µM [inhibitor, single point]",–
CCCCCC(=O)Nc1nnn(CCC)n1,–,inactive: 1.91%
COc1ccc(C2Sc3ccccc3NC3=C2C(=O)c2ccccc23)c(OC)c1OC (configuration not stated),–,inactive: -2.6%
Cc1cc(C)n(-c2ccc(C(=O)OCC(=O)c3ccc(Br)s3)cc2)n1,"inconclusive: 12.6 µM [inhibitor, partial curve]",–
COc1ccc(CNC(=O)/C(C#N)=C2\N=C(NC(=O)c3cccs3)c3ccccc32)cc1,active: 25.1 µM,–

SMILES,Potency,"max response, negative = inhibition"
N#Cc1c(NCCN)nc(NCc2ccccc2)c2c1CCN(Cc1ccccc1)C2,active: 7.94 µM,–
CCN(CC)CCOC(=O)[C@@H](Cc1cccc2ccccc12)C[C@@H]1CCCO1,–,inactive: 1.96%
Cc1ccc2nc(-c3cc(NC(=O)c4ccc5c(c4)OCCO5)ccc3Cl)oc2c1,"inconclusive: 12.6 µM [inhibitor, partial curve, poor fit]",–
CCc1ccc(NC(=O)c2onc(C)c2Cl)cc1,"inconclusive: 0.01 µM [inhibitor, full curve, poor fit]",–
COc1cc(OC)cc(-c2cc3nc(C)cc(N4CCN(C(=O)c5ccco5)CC4)n3n2)c1,"inconclusive: 31.6 µM [activator, single point]",–
CC1=C(C(=O)OCc2ccc3c(c2)OCO3)C(c2ccccc2OCc2ccccc2)NC(=O)N1 (configuration not stated),active: 15.8 µM,–
O=S(=O)(Nc1ccc2oc3c(c2c1)CCCC3)c1cc(Cl)ccc1Cl,active: 31.6 µM,–
CC(=O)c1c(C)[nH]c(C(=O)OCC(=O)N2CCN(S(=O)(=O)c3ccc(C)cc3C)CC2)c1C,"inconclusive: 39.8 µM [activator, single point]",–
Cc1cc(C)n(-c2nc3ccccc3nc2N2CCN(S(=O)(=O)c3ccc4ccccc4c3)CC2)n1,"inconclusive: 39.8 µM [inhibitor, single point]",–
COc1ccc(NC(=O)/C(C#N)=C/c2ccc(OCc3cc(=O)n4nc(C)sc4n3)cc2)cc1,–,inactive: -14.6%
COc1ccc(S(=O)(=O)N2CCC(C(=O)N3CCN(c4ccccc4OC)CC3)CC2)cc1,"inconclusive: 31.6 µM [activator, partial curve]",–
CS(=O)(=O)c1ccc(/C=N\NC(N)=S)cc1,–,inactive: -12.8%
Cc1c2ccncc2c(C)c2c1[nH]c1ccccc12,"inconclusive: 20 µM [inhibitor, single point]",–
COc1ccccc1NS(=O)(=O)c1ccc(NN=C2CCCCC2)c([N+](=O)[O-])c1,"inconclusive: 39.8 µM [inhibitor, single point]",–
Cc1c(C2=CCN(S(=O)(=O)c3ccc(Cl)cc3)CC2)c2ccccc2n1C,active: 31.6 µM,–
CCOC(=O)c1c(C)n(Cc2ccco2)c2ccc(OC)cc12,–,inactive: 9.44%
CCOc1cc(/C=N/NC(=O)C(=O)NCCCOC(C)C)cc(Br)c1O,"inconclusive: 15.8 µM [activator, partial curve]",–
COC(=O)c1ccc(Cn2cnc3c(sc4nc(N5CCOCC5)c5c(c43)CCCC5)c2=O)o1,"inconclusive: 39.8 µM [activator, single point]",–
CC(C)(C)c1ccc(OCc2nc(-c3ccccn3)no2)c(Br)c1,"inconclusive: 31.6 µM [activator, single point]",–
COC(=O)Cn1c(=NC(=O)c2ccc(S(=O)(=O)N3CCc4ccccc4C3)cc2)sc2cc(OC)ccc21,active: 6.31 µM,–
COc1ccc(/C=N/NC(=O)COc2ccc(Cl)cc2Cl)cc1Cn1nc(C)cc1C,"inconclusive: 39.8 µM [inhibitor, single point]",–
COc1cccc(N2CCN(C(=O)c3cnn(C(C)(C)C)c3C3CCN(C(=O)OC(C)(C)C)CC3)CC2)c1,–,inactive: 26.8%
Cc1cc2ccccc2c[n+]1CC(O)C[n+]1cc2ccccc2cc1C,–,inactive: 8.43%

SMILES,Potency,"max response, negative = inhibition"
Cc1ccc(S(=O)(=O)Cc2nc(-c3ccc(C(=O)NCc4ccccc4)cc3)oc2C)cc1,–,inactive: -2.21%
CCOC(=O)CN1C(=O)C(O)(CC(=O)c2cc(OC)ccc2OC)c2ccccc21 (configuration not stated),–,inactive: 2.75%
O=C(Nc1ccc(N2CCCC2)cc1)c1ccccc1F,active: 20 µM,–
COc1ccc([N+](=O)[O-])cc1COc1cc(C)cc2oc(=O)cc(-c3ccccc3)c12,active: 31.6 µM,–
CCN(CC)CCCNC(=O)C1CCN(S(=O)(=O)CC)CC1,–,inactive: -2.7%
N#Cc1ccc(CN2CC[C@@]3(CCCN(C(=O)c4ccco4)C3)C2)cc1,"inconclusive: 3.16 µM [inhibitor, single point]",–
CC(C)c1nc(SCC(=O)Nc2ccc(N3CCOCC3)cc2)c2ccccc2n1,"inconclusive: 31.6 µM [activator, single point]",–
Cc1ccc(C(=O)NC(=S)NNC(=O)c2ccccc2[N+](=O)[O-])cc1,"inconclusive: 31.6 µM [inhibitor, single point]",–
Cc1cccc(C)c1OCC(=O)Nc1nc(-c2ccc(Br)cc2)ns1,–,inactive: 10.7%
N=C(N)SCCc1ccccn1,–,inactive: 6.29% and inactive: -5.14%
Cc1sc(N/N=C/c2cccnc2)nc1-c1ccc(Cl)cc1,active: 15.8 µM,–
Cc1cccc(-n2c(-c3ccccc3)cn3c4c(=O)[nH]c(=O)n(C)c4nc23)c1,–,inactive: 5.2%
Cc1ccccc1-c1cc(C(=O)Nc2nc3c(s2)CCCC3)c2ccccc2n1,"inconclusive: 25.1 µM [inhibitor, single point]",–
O=C(NCc1cccc(F)c1)c1ccc(-n2cnc3cccnc32)cc1,–,inactive: 22.1%
Cc1ccc(-n2c(C)nc3c(cnn3-c3ccccc3C)c2=O)cc1F,–,inactive: 0.0065%
Cc1cccc(NC(=O)c2cc3c([nH]c4ccccc43)c(C)n2)c1C,"inconclusive: 39.8 µM [inhibitor, single point]",–
O=C(Nc1nnc(C2CC2)s1)c1cc(S(=O)(=O)N2CCN(c3ccccc3)CC2)ccc1Cl,"inconclusive: 31.6 µM [inhibitor, single point]",–
CCOC(=O)c1sc(=S)n(-c2ccc(F)c(F)c2)c1N,"inconclusive: 31.6 µM [inhibitor, single point]",–
CCn1c(=O)c2cc(C(=O)NCCc3cc(OC)ccc3OC)sc2c2ccccc21,–,inactive: -0.748%
CCCCCC(/C=N/Nc1ccc(S(=O)(=O)N2CCOCC2)cc1[N+](=O)[O-])=C\c1ccccc1,"inconclusive: 5.01 µM [inhibitor, full curve]",–
Cc1ccccc1C(=O)NC1(C(F)(F)F)C(=O)Nc2c1c(=O)[nH]c(=O)n2CCc1ccccc1 (configuration not stated),–,inactive: 0.933%
